# In the supplement of paper PMC3334620:
# The full ranking holds about 33,000 sequences; the median of “E-score (-0.5 to 0.5)” is about -0.012, and the highest 2% start at about 0.29. Some of the results follow.
# Target: T1, Ybr033w (UniProt P38073)
# T1 sequence: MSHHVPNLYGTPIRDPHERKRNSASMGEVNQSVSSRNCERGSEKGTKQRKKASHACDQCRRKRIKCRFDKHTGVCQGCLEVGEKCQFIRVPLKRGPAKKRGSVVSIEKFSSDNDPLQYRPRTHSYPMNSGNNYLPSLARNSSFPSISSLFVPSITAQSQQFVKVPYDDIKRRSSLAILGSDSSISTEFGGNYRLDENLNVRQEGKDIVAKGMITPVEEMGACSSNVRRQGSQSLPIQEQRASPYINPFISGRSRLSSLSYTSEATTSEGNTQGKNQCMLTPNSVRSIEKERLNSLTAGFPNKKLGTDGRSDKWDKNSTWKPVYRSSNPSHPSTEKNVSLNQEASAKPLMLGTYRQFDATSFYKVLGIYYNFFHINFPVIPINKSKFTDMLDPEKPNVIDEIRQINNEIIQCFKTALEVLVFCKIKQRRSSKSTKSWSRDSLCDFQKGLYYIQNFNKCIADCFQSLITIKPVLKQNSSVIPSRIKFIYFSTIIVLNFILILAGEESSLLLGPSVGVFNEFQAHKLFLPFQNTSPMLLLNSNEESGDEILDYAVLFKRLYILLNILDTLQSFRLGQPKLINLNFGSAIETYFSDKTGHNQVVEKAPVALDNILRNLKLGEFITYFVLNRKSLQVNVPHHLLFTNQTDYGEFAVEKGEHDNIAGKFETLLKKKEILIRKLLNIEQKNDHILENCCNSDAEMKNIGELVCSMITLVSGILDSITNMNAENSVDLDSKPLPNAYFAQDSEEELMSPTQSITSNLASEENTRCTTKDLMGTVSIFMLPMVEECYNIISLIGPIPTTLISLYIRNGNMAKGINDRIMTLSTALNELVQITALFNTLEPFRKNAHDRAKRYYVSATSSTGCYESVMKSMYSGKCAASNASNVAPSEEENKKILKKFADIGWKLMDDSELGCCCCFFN
# Assay: PBM E-score (8-mer binding enrichment) (E-score (-0.5 to 0.5)); higher = stronger / more preferred TF binding; most listed sequences are background and not binding sites
# Conditions: protein concentration: 200 nM; construct: GST-full length
# Procedure, shortened: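 Each ungapped eight-base word and its reverse complement, pooled, received an E-score from the Universal PBM Analysis Suite. Underlying scans, normalised with masliner, recorded fluorescent anti-GST bound to GST-tagged yeast transcription factors. These were applied at about 100-200 nM to universal all-10-mer Agilent arrays double-stranded by primer extension.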
row,Sequence,PBM E-score
1,GGCGTCGA,0.023
2,CCGACCTC,-0.0919
3,TGTGGGAA,-0.0363
4,AATCATTG,0.198
5,CTCAGACA,-0.00572
6,ACGCCGTC,-0.0533
7,ACTAATGC,0.179
8,AAGAACTG,0.138
9,ATATCCTA,0.23
10,CTCTTCTA,0.0646
11,ACGTGCGG,-0.196
12,CCCCACGG,-0.205
13,GGATTTAC,0.24
14,GAAGGTAA,0.0785
15,CTCAGATC,-0.0482
16,GAATCTCA,-0.0766
17,AGCTACTC,-0.0392
18,CCACGACC,-0.0471
19,GCTACATA,-0.0144
20,CGGTCATC,-0.195
21,AGCCACTA,-0.0733
22,AGCTCGGC,-0.0694
23,CACATTAC,0.0386
24,AAAATGGG,-0.032
25,CACTATAG,-0.0228

row,Sequence,PBM E-score
1,GAGAAGGA,0.058
2,CCGGGCCA,-0.173
3,GTAAAGCA,0.168
4,ATAAATAC,0.211
5,CGAAACGA,0.204
6,AAGTTTTG,0.213
7,GCGGGCGA,-0.0848
8,ATAGATGC,0.067
9,AGATCTAC,0.0175
10,CAGTCGGA,0.071
11,CTACTAAA,0.154
12,CTTGGTTA,0.123
13,CTGAGTGC,-0.24
14,GACCCGTA,-0.233
15,CGGAGATC,-0.191
16,CAACTCTA,0.0327
17,ACCTTATG,0.0825
18,TATGATGA,0.198
19,GTCAATAA,-0.0642
20,CGCTACAA,0.111
21,AAGTAATG,0.141
22,CGGACGGC,-0.21
23,ATGTGGCA,-0.0748
24,AGTTCGCC,0.0528
25,AATGCTAG,-0.131

row,Sequence,PBM E-score
1,AAGCGATA,0.0888
2,CTGCGCCC,-0.362
3,ACTTGATA,0.265
4,CGATTGCG,0.0376
5,CCTTTACC,-0.329
6,AGCCATAG,-0.0454
7,AGTGGTGA,0.0237
8,CCGGACGC,-0.145
9,ACAAAACA,0.26
10,GTTATAAA,0.203
11,CTCACAGA,0.0459
12,ATGTAGTG,0.141
13,AAGACTTG,0.0959
14,GTTAGTAA,0.17
15,AGTTGCAG,-0.00615
16,TTACTCAA,0.177
17,AACTCCCG,-0.0286
18,ATGAAAGA,0.119
19,CATGCCAA,0.0108
20,ACTCGGCC,-0.0944
21,CTTCCCCC,-0.345
22,ATGCATAC,0.131
23,ACGCGTTC,-0.124
24,AAATAATC,0.341
25,CGACTCCG,-0.248

row,Sequence,PBM E-score
1,TGGGCAAA,0.0292
2,CTAAAATA,0.147
3,AAAGCGCA,0.0587
4,GAGCCATC,-0.136
5,CCCTCCCG,-0.17
6,CCACGAAA,-0.0785
7,CTCCGCTA,-0.0833
8,AAGTCCGC,-0.125
9,CGCCTGCC,-0.423
10,GCTACCGA,-0.116
11,AGGTCCGG,-0.139
12,ACAGAACG,-0.0702
13,CCGAGAAC,0.155
14,ACGCTGCA,-0.114
15,GCTCTCAC,-0.308
16,CCTCACCC,-0.0599
17,AAGCTCAT,-0.0323
18,AGGATCCA,-0.0511
19,AACGCTAC,-0.143
20,AACCTCTT,0.122
21,ATATCGTC,0.033
22,GCAAATCA,-0.116
23,CAAAACTA,0.217
24,AATCCTCA,0.117
25,AAGCTGCC,-0.303

row,Sequence,PBM E-score
1,CAACCGTA,-0.239
2,AAATAGCG,0.0616
3,GGATCGAA,-0.0107
4,CGCTATCA,-0.0322
5,GACGCACC,-0.15
6,ACACCTTG,-0.0348
7,AACTCCCA,-0.0757
8,AGGCCTAA,-0.00615
9,ATAATATG,0.273
10,CCGTTTTC,0.147
11,CCCCTGTC,-0.343
12,ACCTTGTA,0.202
13,GTCGGTGA,-0.133
14,GATCCCTA,-0.0658
15,CACGAAAA,0.127
16,CAATGTAC,-0.103
17,GGATCAAC,0.369
18,GATGACTA,-0.023
19,ATACTAGC,0.0225
20,AGCGGACT,-0.242
21,AACGTTAA,0.212
22,ATTAGGAA,0.286
23,GATTTCCC,0.0546
24,CGGCTAAC,0.0375
25,ATCCGGAC,-0.0654

row,Sequence,PBM E-score
1,GATAGAAC,0.172
2,ATTGCTGA,0.0669
3,AGATCTTC,0.137
4,ATTGGTTG,0.0397
5,AAGAACGC,0.0624
6,CTCGAGCC,-0.082
7,CCCGGGGA,-0.287
8,ATAAAAAT,0.193
9,CTGTAATA,0.0757
10,ATTTACAC,0.00495
11,CCCCATTA,-0.256
12,GAATGTAC,-0.0862
13,CCGGCCAG,-0.112
14,TAACACAA,0.202
15,AGACAAGA,0.0778
16,AACGTCCT,0.00378
17,AATTGCGA,-0.0541
18,CGGTAGAC,-0.0176
19,AATATCAA,0.233
20,ACAGGTCC,-0.198
21,AGCTTGGA,-0.101
22,GAAAGTTC,-0.0203
23,GAAGATTC,0.165
24,AAGAGTTC,0.0919
25,GATCGAAA,0.208

row,Sequence,PBM E-score
1,TCCTTCGA,-0.0872
2,ATAAGGTA,0.0435
3,GTACTCTA,-0.0777
4,GCTGCCGA,-0.159
5,CCGCCTAA,-0.086
6,GAACACTC,-0.0265
7,CTTTCGCC,-0.0766
8,AGTAGGTA,0.0324
9,ACAACGCT,-0.178
10,CAATCTAC,0.0081
11,GGTGCGAC,-0.234
12,CTGAGTAC,-0.0858
13,GCTCGGCA,-0.0888
14,CGTCTAAA,0.0854
15,CCGGCATA,-0.0709
16,AGTTCAAA,0.165
17,AACCCTAT,0.0771
18,AGGCCTAG,-0.193
19,CAGAATAA,0.119
20,CTGCAGAC,-0.256
21,ATAAATAG,0.254
22,GCATTATA,0.0824
